Data taken from patent US12678512B2, “Anti-EGFR antibody-drug conjugate with a cyclic dinucleotide derivative” (DAIICHI SANKYO COMPANY, LIMITED, priority 2020, dated 2026).

How the values were obtained:
[1] = tested on: HCC1954-IFIT1 reporter cells; assay: HCC cell assay, IFIT1 promoter reporter in TROP2-expressing cells; type: cell-based, human; settings: 24 h stimulation, FIG. 11
Excerpt: By using the human breast cancer cell line HCC1954 (CRL-2338) cells purchased from the American Type Culture Collection as a strain stably expressing high levels of TROP2 and STING, HCC1954-IFIT1 reporter cells were generated by stably expressing the IFIT1 promoter reporter gene. Specifically, the purchased human IFIT1 (ISG-56) promoter reporter plasmid (GeneCopoeia, HPRM40290-PG04) was transfected into HCC1954 cells using FuGene HD (Promega). The cells were subcultured in medium containing 1.0 g/mL puromycin (Life Technologies) to generate stable expression lines, followed by cloning to obtain a cell line for evaluation. Then, HCC1954-IFIT1 reporter cells suspended in assay buffer (RPMI 1640 medium containing 10% bovine serum albumin) were dispensed at 90 μL/well (2.5×10^4 cells/well) of a 384-well plate. The next day, each test compound was diluted in PBS and 10 μL was added to start stimulation. The cells were cultured for 24 h under conditions at 37° C. and 5% CO2, and then centrifuged to collect the supernatant. Next, 6 μL of the collected supernatant was added to a white 384-well plate, and 15 μL of QUANTI-Luc (InvivoGen) solution was added thereto. After well mixing, the luminescence was measured using a plate reader (PerkinElmer, MA, US).

[2] = tested on: CT26.WT-hTROP2 cells subcutaneously transplanted in BALB/c mouse; assay: Anti-tumor test (1); type: in vivo
Description: CT26.WT (CRL2638), a mouse colon cancer cell line purchased from American Type Culture Collection, was transduced with the human TROP2 gene (NP_002344.2) to establish CT26.WT-hTROP2 cells. In detail, a pQCIXN vector (Takara Bio) was digested with BamHI and Eco RI and then treated with T4 DNA polymerase, so that the resulting cleaved ends were blunted. Next, a pQCIXN-DEN vector was prepared by ligation with Gateway reading frame cassette A. The human TROP2 was inserted into the vector using the Gateway system (Thermo Fisher Scientific). […] Then, the supernatant was collected, and the CT26.WT was infected therewith. The cells were maintained in medium supplemented with 250 μg/mL geneticin (Thermo Fisher Scientific).
(§1) Each antibody or antibody-CDN conjugate was diluted in acetate buffer (10 mM acetate buffer, 5% sorbitol, pH 5.5) (NACALAI TESQUE, INC.).
CT26.WT-hTROP2 cells were suspended in saline. Next, 2.0×10^6 cells were transplanted subcutaneously into the right axillary region of each BALB/c mouse (Day 0), and random grouping was conducted after 7 days. […] In addition, the vehicle group was provided in which acetate buffer was administered. The number of mice in each group was 8.

[3] = tested on: mouse bone marrow-derived dendritic cells; assay: Co-culture assay with CT26.WT or CT26.WT-hCD70 cell line and mouse bone marrow-derived dendritic cells; type: cell-based; settings: conditions DC, 20 h incubation, FIG. 12
Excerpt: CT26.WT (CRL2638), a mouse colon cancer cell line purchased from American Type Culture Collection, was transduced with human CD70 gene (NP_001243) to establish CT26.WT-hCD70 cells. Specifically, a pLVSIN lentiviral vector (Takara Bio), in which the human CD70 gene was inserted, was constructed. Next, Lenti-X293T cell line (Takara Bio) was transfected with the vector using a Lentiviral High Titer Packaging Mix (Takara Bio). Then, the supernatant was collected, and the CT26.WT was infected therewith. The cells were maintained in medium supplemented with 10 μg/mL puromycin (Thermo Fisher Scientific).
Mouse bone marrow cells were collected from the femur of 5-week-old female BALB/c mice (BALB/cAnNCrlCrlj) (Charles River, Japan). The mouse bone marrow cells were cultured in the presence of […] murine GM-CSF (PEPROTECH) for 7 days to obtain mouse bone marrow-derived dendritic cells. 1.5×10^5 CT26.WT or CT26.WT-hCD70 cell line cells and 1×10^5 mouse bone marrow-derived dendritic cells were seeded per well of a 96-well plate. Each test compound was diluted in RPMI medium (Invitrogen), and 200 μL was added. […] The cells were washed with FCM buffer again and analyzed using a Fortessa (BD Biosciences). MFI of CD86 in CD45^+, CD11c^+, and I-A/I-E^+ fraction was calculated. Then, the ratio with respect to the test compound-free group was calculated. […]

[4] = tested on: Caki-1 (HTB-46) cells subcutaneously transplanted in BALB/c-nu mouse; assay: Anti-tumor test (3); type: in vivo, human; settings: 1.5 mg/kg into the tail vein once on Day 13, FIG. 22
Description: as §1
Caki-1 (HTB-46) cells, a human renal cancer cell line purchased from American Type Culture Collection, were suspended in Matrigel (CORNING) diluted 50% in saline. Next, 2.5×10^6 cells were transplanted subcutaneously into the right axillary region of each BALB/c-nu mouse (Day 0), and random grouping was conducted after 13 days. The anti-CD70 antibody 1, the anti-CD70 antibody 1-CDN conjugate (1), the anti-CD70 antibody 2, or the anti-CD70 antibody 2-CDN conjugate (1) was administered at a dose of 1.5 mg/kg into the tail vein once on Day 13. In addition, the vehicle group was provided in which acetate buffer was administered. The number of mice in each group was 8.

B1: anti-TROP2 antibody 2: created by introducing LALA mutation into the anti-TROP2 antibody 1; light chain SEQ ID NO: 7, heavy chain SEQ ID NO: 8 (antibody, listed as Homo sapiens)
heavy: QVQLVQSGAEVKKPGASVKVSCKASGYTFTTAGMQWVRQAPGQGLEWMGWINTHSGVPKYAEDFKGRVTISADTSTSTAYLQLSSLKSEDTAVYYCARSGFGSSYWYFDVWGQGTLVTVSSASTKGPSVFPLAPSSKSTSGGTAALGCLVKDYFPEPVTVSWNSGALTSGVHTFPAVLQSSGLYSLSSVVTVPSSSLGTQTYICNVNHKPSNTKVDKRV[omitted - human IgG1 Fc with changes]
light: DIQMTQSPSSLSASVGDRVTITCKASQDVSTAVAWYQQKPGKAPKLLIYSASYRYTGVPSRFSGSGSGTDFTLTISSLQPEDFAVYYCQQHYITPLTFGQGTKLEIKRTVAAPSVFIFPPSDEQLKSGTASVVCLLNNFYPREAKVQWKVDNALQSGNSQESVTEQDSKDSTYSLSSTLTLSKADYEKHKVYACEVTHQGLSSPVTKSFNRGEC
How did the “luminescence count (IFIT1 promoter reporter)” value [1] turn out when B1 was run?
Its value is “did not cause an increase in the luminescence count”.

And the “tumor growth (tumor volume)” value ([2]; 3.0 mg/kg into the tail vein once on Day 7, FIG. 14)?
Its value is “tumor growth progressed”.

B2: anti-CD70 antibody 1: IgG1 isotype with LALA mutation, produced with reference to WO2004/073656; light chain SEQ ID NO: 1, heavy chain SEQ ID NO: 2 (antibody, listed as Homo sapiens)
heavy: QVQLVQSGAEVKKPGASVKVSCKASGYTFTNYGMNWVRQAPGQGLKWMGWINTYTGEPTYADAFKGRVTMTRDTSISTAYMELSRLRSDDTAVYYCARDYGDYGMDYWGQGTTVTVSSASTKGPSVFPLAPSSKSTSGGTAALGCLVKDYFPEPVTVSWNSGALTSGVHTFPAVLQSSGLYSLSSVVTVPSSSLGTQTYICNVNHKPSNTKVDKRV[omitted - human IgG1 Fc with changes]
light: DIVMTQSPDSLAVSLGERATINCRASKSVSTSGYSFMHWYQQKPGQPPKLLIYLASNLESGVPDRFSGSGSGTDFTLTISSLQAEDVAVYYCQHSREVPWTFGQGTKVEIKRTVAAPSVFIFPPSDEQLKSGTASVVCLLNNFYPREAKVQWKVDNALQSGNSQESVTEQDSKDSTYSLSSTLTLSKADYEKHKVYACEVTHQGLSSPVTKSFNRGEC
B2 was tested. Which “CD86 expression on mouse dendritic cells (ratio of MFI with respect to the compound-free group)” value [3] did it give?
Its value is “Neither the anti-CD70 antibody 1 nor the anti-CD70 antibody 2 upregulated CD86 expression in any condition”.

And the “tumor growth (tumor volume)” value [4]?
Its value is “Tumor growth progressed”.

B3: anti-CD70 antibody 1-CDN conjugate (1) (conjugate)
heavy: QVQLVQSGAEVKKPGASVKVSCKASGYTFTNYGMNWVRQAPGQGLKWMGWINTYTGEPTYADAFKGRVTMTRDTSISTAYMELSRLRSDDTAVYYCARDYGDYGMDYWGQGTTVTVSSASTKGPSVFPLAPSSKSTSGGTAALGCLVKDYFPEPVTVSWNSGALTSGVHTFPAVLQSSGLYSLSSVVTVPSSSLGTQTYICNVNHKPSNTKVDKRV[omitted - human IgG1 Fc with changes]
light: DIVMTQSPDSLAVSLGERATINCRASKSVSTSGYSFMHWYQQKPGQPPKLLIYLASNLESGVPDRFSGSGSGTDFTLTISSLQAEDVAVYYCQHSREVPWTFGQGTKVEIKRTVAAPSVFIFPPSDEQLKSGTASVVCLLNNFYPREAKVQWKVDNALQSGNSQESVTEQDSKDSTYSLSSTLTLSKADYEKHKVYACEVTHQGLSSPVTKSFNRGEC
B3 was tested. Which “CD86 expression on mouse dendritic cells (ratio of MFI with respect to the compound-free group)” value [3] did it give?
Its value is “enhanced the expression of CD86 on mouse dendritic cells only when mouse bone marrow-derived dendritic cells were cultured with CT26.WT-hCD70”.

And the “tumor growth (tumor volume)” value [4]?
The value was “tumor growth was markedly inhibited”.

B4: anti-TROP2 antibody 1: IgG1 isotype, produced with reference to WO2015/098099; light chain SEQ ID NO: 5, heavy chain SEQ ID NO: 6 (antibody, listed as Homo sapiens)
heavy: QVQLVQSGAEVKKPGASVKVSCKASGYTFTTAGMQWVRQAPGQGLEWMGWINTHSGVPKYAEDFKGRVTISADTSTSTAYLQLSSLKSEDTAVYYCARSGFGSSYWYFDVWGQGTLVTVSSASTKGPSVFPLAPSSKSTSGGTAALGCLVKDYFPEPVTVSWNSGALTSGVHTFPAVLQSSGLYSLSSVVTVPSSSLGTQTYICNVNHKPSNTKVDKRV[omitted - human IgG1 Fc]
light: DIQMTQSPSSLSASVGDRVTITCKASQDVSTAVAWYQQKPGKAPKLLIYSASYRYTGVPSRFSGSGSGTDFTLTISSLQPEDFAVYYCQQHYITPLTFGQGTKLEIKRTVAAPSVFIFPPSDEQLKSGTASVVCLLNNFYPREAKVQWKVDNALQSGNSQESVTEQDSKDSTYSLSSTLTLSKADYEKHKVYACEVTHQGLSSPVTKSFNRGEC
How did the “tumor growth (tumor volume)” value ([2]; 30 g/animal (equivalent to 1.5 mg/kg) into the tail vein once on Day 7, FIG. 13) turn out when B4 was run?
The value was “Tumor growth progressed”.
